{"source": "the supplement of paper PMC10441789", "note": "Some of the results follow. Antibody binding of pooled human sera (four to six donors per pool; dilution not stated) to peptides of the Trypanosoma cruzi antigen TSSA on microarrays. Quantile-normalised fluorescence in arbitrary units, mean of duplicate arrays; higher = more binding. No active / inactive call. The uninfected pools are read here as the healthy donors of the same country. The strongest signals lie near the top of the scale (about 60,000).", "data": [{"system": "pooled sera of uninfected people, Brazil", "assay": "antibody binding signal (normalised fluorescence) (arbitrary fluorescence units); higher = stronger serum antibody binding to peptide", "protocol": "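Microarray of overlapping 15-residue peptides of the four Trypanosoma cruzi TSSA reference variants and 8- to 13-residue peptides of TSSAII 24-62, probed with one serum pool per country.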", "values": [{"sequence": "APSQPGAS", "antibody binding signal": 286}, {"sequence": "ACTTANGGSTSSTPP", "antibody binding signal": 316}, {"sequence": "TPPSGTENK", "antibody binding signal": 425}, {"sequence": "GTPSPSGASSGEAEA", "antibody binding signal": 125}, {"sequence": "PGASSGEAEASS", "antibody binding signal": 115}, {"sequence": "GEAPSQPGASS", "antibody binding signal": 165}, {"sequence": "SACTTANGGSTSSTP", "antibody binding signal": 267}, {"sequence": "PATGEAPSQPGAS", "antibody binding signal": 350}, {"sequence": "APSPSGASSGEAEAS", "antibody binding signal": 152}, {"sequence": "STPPSGTENK", "antibody binding signal": 291}, {"sequence": "NKPATGEAPSQPG", "antibody binding signal": 792}, {"sequence": "STSSTPPSG", "antibody binding signal": 387}, {"sequence": "TPPSGTEN", "antibody binding signal": 121}, {"sequence": "EAPSQPGASSGEAEA", "antibody binding signal": 104}, {"sequence": "ATGEAPSQPG", "antibody binding signal": 305}, {"sequence": "ATGEAPSQPGAS", "antibody binding signal": 229}, {"sequence": "PSQPGASSGEAEA", "antibody binding signal": 122}, {"sequence": "PSGTENKPATGEA", "antibody binding signal": 368}, {"sequence": "TGEAPSQPG", "antibody binding signal": 348}, {"sequence": "NGGSTSST", "antibody binding signal": 197}, {"sequence": "ANGGSTISTPPSGTD", "antibody binding signal": 135}, {"sequence": "TPPSGTEKKAAAGEA", "antibody binding signal": 392}, {"sequence": "GGSTSSTPPS", "antibody binding signal": 241}, {"sequence": "STISTPPSGTDKKTA", "antibody binding signal": 233}, {"sequence": "STISTPPSGTEKKAA", "antibody binding signal": 242}, {"sequence": "APSQPGASSGEA", "antibody binding signal": 160}, {"sequence": "TENKPATG", "antibody binding signal": 277}, {"sequence": "ENKPATGEA", "antibody binding signal": 169}, {"sequence": "NGGSTSSTPPSGT", "antibody binding signal": 242}, {"sequence": "GGSTSSTPPSGT", "antibody binding signal": 219}, {"sequence": "TSSTPPSGTE", "antibody binding signal": 107}, {"sequence": "STPPSGTENKPA", "antibody binding signal": 697}, {"sequence": "PPSGTEKKAAAGEAP", "antibody binding signal": 208}, {"sequence": "GASSGEAEASSNKND", "antibody binding signal": 152}, {"sequence": "TPSPSGASSGEAEAS", "antibody binding signal": 120}, {"sequence": "GEAEASSNKNDGSLS", "antibody binding signal": 1190}, {"sequence": "PGASSGEAE", "antibody binding signal": 119}, {"sequence": "TPPSGTENKPAT", "antibody binding signal": 576}, {"sequence": "GTENKPAT", "antibody binding signal": 271}, {"sequence": "TPPSGTDKKTAAGEA", "antibody binding signal": 423}]}]}
